Publication PMC4336329 (PLoS ONE, 2015)
About 2,200 (0.71%) of roughly 310,000 compounds showed an effect of 50% or more. Effects have a minus sign here. The list shows a part of the results.

Molecular target: human ether-à-go-go-related gene (hERG) potassium channel (human, UniProt Q12809)
Assay: primary screen, population patch clamp on CHO cells stably expressing hERG

Sequence of human ether-à-go-go-related gene (hERG) potassium channel (Q12809 whole entry, looked up): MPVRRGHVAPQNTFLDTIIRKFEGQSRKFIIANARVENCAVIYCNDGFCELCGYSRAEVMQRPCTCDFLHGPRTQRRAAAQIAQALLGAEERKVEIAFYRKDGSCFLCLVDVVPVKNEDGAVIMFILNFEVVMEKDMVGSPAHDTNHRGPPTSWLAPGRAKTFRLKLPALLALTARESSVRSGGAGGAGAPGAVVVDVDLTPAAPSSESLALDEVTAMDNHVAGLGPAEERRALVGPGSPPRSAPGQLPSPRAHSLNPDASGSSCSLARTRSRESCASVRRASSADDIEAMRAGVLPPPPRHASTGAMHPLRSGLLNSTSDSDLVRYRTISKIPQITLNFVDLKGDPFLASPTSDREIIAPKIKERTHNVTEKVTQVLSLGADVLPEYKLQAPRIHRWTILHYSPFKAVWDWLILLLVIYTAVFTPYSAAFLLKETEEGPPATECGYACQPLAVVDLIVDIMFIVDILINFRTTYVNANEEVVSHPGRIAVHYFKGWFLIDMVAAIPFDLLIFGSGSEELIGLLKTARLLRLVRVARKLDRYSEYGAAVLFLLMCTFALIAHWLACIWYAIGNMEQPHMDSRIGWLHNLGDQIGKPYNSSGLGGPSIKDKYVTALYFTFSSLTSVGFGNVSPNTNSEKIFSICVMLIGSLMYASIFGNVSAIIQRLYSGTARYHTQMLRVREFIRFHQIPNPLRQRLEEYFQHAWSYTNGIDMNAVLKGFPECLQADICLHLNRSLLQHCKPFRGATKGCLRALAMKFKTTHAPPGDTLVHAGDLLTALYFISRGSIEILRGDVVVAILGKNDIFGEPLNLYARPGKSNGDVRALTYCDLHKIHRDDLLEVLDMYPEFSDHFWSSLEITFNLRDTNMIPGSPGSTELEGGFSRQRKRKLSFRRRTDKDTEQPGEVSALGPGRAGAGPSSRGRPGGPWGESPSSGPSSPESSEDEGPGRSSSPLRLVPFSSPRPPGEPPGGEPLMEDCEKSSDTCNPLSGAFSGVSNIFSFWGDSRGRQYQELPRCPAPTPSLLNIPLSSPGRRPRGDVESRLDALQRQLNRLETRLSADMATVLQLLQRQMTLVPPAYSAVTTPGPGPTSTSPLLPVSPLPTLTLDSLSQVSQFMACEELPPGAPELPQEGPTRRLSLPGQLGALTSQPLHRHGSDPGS

SMILES	hERG current change (%, negative = inhibition) at 1uM [%]
Cc1c(OCC(=O)NC(Cc2ccc(Cl)cc2)C(=O)O)ccc2c3c(c(=O)oc12)CCC3 (stereo not shown)	3.19
Cc1ccc(CC2SC(=Nc3ccccc3)N(c3ccccc3)C2=O)cc1 (stereo not shown)	14.1
COc1ccccc1NCC(=O)NNC(C)C(=O)Nc1cccc(Cl)c1 (stereo not shown)	8.78
Clc1ccc(-c2nc3cnccn3c2NC2CCCC2)cc1	4.38
Cc1ccc(NC(=O)CC2NCCNC2=O)cc1 (stereo not shown)	-5.51
NC(=O)C(c1ccc(Br)cc1)c1ccc(C(=O)c2ccccc2)cc1 (stereo not shown)	5.64
CC(=O)Nc1ccc(NC(=S)NC(=O)c2ccc(-c3ccccc3)cc2)cc1	13.4
Cc1ccc(C2SCC(=O)N2Cc2ccccc2)cc1 (stereo not shown)	8.4
CC(C)CC(O)C1CCN(C(=O)CCc2nnc(-c3ccccc3)o2)CC1 (stereo not shown)	7.15
Cc1ccc(OCCn2cc(C#N)c3ccccc32)cc1	-0.345
CCOC(=O)N1CCN(S(=O)(=O)c2cccc3nsnc23)CC1	7.05
CC(=O)Nc1ccc(NC(=O)c2ccnn2C)cc1	7.47
CC(=O)c1cccc(NC(=O)COC(=O)c2cccc(N3C(=O)c4ccccc4C3=O)c2)c1	7.09
CCn1c(CSc2ncccn2)nnc1SCC(=O)N1CCCCC1	22.9
NC(=O)c1ccccc1NC(=O)C1CCCO1 (stereo not shown)	9.69
COc1ccc(/C(N)=N/OC(=O)Cc2cccs2)cc1OC	12.2
COc1ccc(S(=O)(=O)N2CCN(C(=O)c3c(C)nn(-c4ccccc4)c3Cl)CC2)cc1	-4.63
C/C(=N\NS(=O)(=O)c1ccccc1)c1ccc2c(c1)OCCO2	0.17
Cc1cccc(NC(=O)CN2C(=O)CCS(=O)(=O)c3ccccc32)c1C	8.34
Cc1cc(N2CCOCC2)ccc1/C=C1\NC(=O)N(Cc2ccccc2F)C1=O	12.7
CC(C)Cn1c(=O)[nH]c(=O)c2c(C(F)(F)F)cc(-c3ccccc3)nc21	6.91
Cc1ccc(N2C(=O)CC(Sc3nc4ccccc4o3)C2=O)cc1Cl (stereo not shown)	13.1
Cc1ccc(S(=O)(=O)N2CC2(C)CCl)cc1 (stereo not shown)	4.4

SMILES	hERG current change (%, negative = inhibition) at 1uM [%]
COC(=O)C1(C(=O)O)Cc2cc([N+](=O)[O-])ccc2N2CCCC21 (stereo not shown)	-7.1
Cc1nn(C2CCS(=O)(=O)C2)c(C)c1CN(C)C(=O)c1ccc(Cl)cc1 (stereo not shown)	2.19
CC(C)C[C@@H](CO)N1CCN(CCCc2ccccc2)CCC1=O	-14
CNC(=O)NCC12CC3CC(CC(C3)C1)C2	3.03
O=C(O)c1cc(Cl)c2ccccc2c1O	11.1
Cc1ccc(C(=O)NCC(=O)OCC(=O)c2ccc3c(c2)NC(=O)CO3)cc1C	-0.132
CCCn1nc(CC(=O)OCC)c2ccccc2c1=O	7.27
OCCC1CN(Cc2c(O)ccc3ccccc23)CCN1CCc1ccccc1 (stereo not shown)	3.65
CCC1CCCCN1S(=O)(=O)c1ccc(S(=O)(=O)N(Cc2cccs2)C2CC2)cc1 (stereo not shown)	10.7
CO/N=C/CC(=O)c1ccc(-c2ccccc2)cc1	7.16
O=c1c(Cc2ccc(F)cc2)c(O)ccn1Cc1ccc(F)cc1	8.37
C=CCCC(=O)Nc1ccc(Br)cn1	8.76
CCOC(=O)c1cc2occc2n1CC(=O)N1CCOCC1	11.3
O=C(N/N=C\c1ccc2c(c1)OCO2)c1ccco1	11.8
CCOc1ccc(/C=N/NC(=O)NC23CC4CC(CC(C4)C2)C3)cc1O	13.8
COc1cc(OC)cc(C(=O)Nc2cccc(-c3ccc4nncn4n3)c2)c1	11.2
CCOc1cc(CNn2cnnc2)ccc1OCC(=O)NC1CCCCC1	9.74
CC1(C)C2(C#N)C(N)=NC3(OCCO3)C12C#N (stereo not shown)	19.1
O=C(CCCCCN1C(=O)c2ccccc2C1=O)Nc1ccc(F)cc1	6.37
CCn1cc2nc(SCC(=O)Nc3ccccc3F)n(Cc3ccccc3)c(=O)c2n1	-33.5
O=C(NCc1ccco1)Nc1ccc(Br)cc1	10.9
O=C(CNc1cccc2ccccc12)N/N=C/c1ccc[nH]1	13.5
COc1ccc(-c2nnc(SCC(=O)c3cccs3)n2-c2ccc(Cl)cc2)cc1	6.02

SMILES	hERG current change (%, negative = inhibition) at 1uM [%]
CC1CCCCN1C(=O)CSc1nc2ncccc2[nH]1 (stereo not shown)	11.8
CN(C)c1nc(Oc2ccc(=O)n(-c3ccccc3)n2)nc(N2CCOCC2)n1	11.7
COC(=O)c1ccccc1NS(C)(=O)=O	20
Cc1cc(/C=C2/C(=O)N(C)C(=S)N2C)c(C)n1C1CC1	11.7
Cc1sc2ncn(CC(=O)NCCc3ccccc3)c(=O)c2c1C	0.253
COCCNC(=O)C(c1ccc(C)o1)N(Cc1ccco1)C(=O)c1snc(C(N)=O)c1N (stereo not shown)	12.4
COc1ccc(/C=N/NC(=O)c2ccc(Br)cc2)cc1CN1CCOCC1	-23.8
CCOc1ccc(-c2cc(C(=O)N/N=C(\C)c3cccnc3)c3ccccc3n2)c(OCC)c1	18.7
N#Cc1nc(-c2ccc(OCc3ccccc3)cc2)oc1N1CCC(C(N)=O)CC1	11.3
COc1ccc(S(=O)(=O)N(CCc2ccccc2)CC(N)=O)cc1	-2.02
O=C(NCc1ccc2c(c1)OCO2)c1cc(-c2ccc(Cl)cc2Cl)on1	11.9
O=C(NCc1ccc(Cl)cc1)C1CCC(CNS(=O)(=O)c2ccccc2)CC1 (stereo not shown)	1.72
CC1=C(C(=O)OCc2ccccc2)C(c2ccco2)n2ncnc2N1 (stereo not shown)	-4.04
Br.C[C@@H]1NCCc2cc(O)c(O)cc21	7.2
CC(C)NC(=S)N(C)C1(c2ccccc2Cl)CCCCC1=O (stereo not shown)	8.9
CCCCCNC(=O)CSC1=N/C(=C\c2ccc(Cl)c(Cl)c2)C(=O)N1CC	3.28
O=C(CN1C(=O)C2C3C=CC(C3)C2C1=O)NCC1COc2ccccc2O1 (stereo not shown)	9.79
CCCCC(=O)N=c1sc2c(OC)ccc(OC)c2n1C	16.8
CCCn1nc(C(=O)OCC(=O)Nc2cccc(OC)c2)c2ccccc2c1=O	9.3
CS(=O)(=O)N1CCN(c2ccc([N+](=O)[O-])c(NCCN3CCOCC3)c2)CC1	4.78
Cl.O=C(NCCN1CCOCC1)C12CC3CC(C1)CC(c1ccccc1)(C3)C2	9.19
O=C(c1cc(-c2cccnc2)nc2ccccc12)N1CCC2(CC1)OCCO2	-2.46
O=S1(=O)N=C(N(CCO)/N=C/c2ccc(Br)cc2)c2ccccc21	16.9

SMILES	hERG current change (%, negative = inhibition) at 1uM [%]
COc1ccc(OC)c(-n2c(O)c(C=NCCN3CCNCC3)c(=O)[nH]c2=S)c1	16.1
CCOc1ccc(NC(=O)c2cnsn2)cc1	9.01
Cc1cccnc1NC(=O)c1ccc(S(=O)(=O)NCc2ccco2)cc1	14.8
Cc1c(Cl)cccc1NC(=O)C1COc2ccccc2O1 (stereo not shown)	12.3
COc1ccc(-c2nnc(SCC(=O)NCC3CCCO3)n2C)cc1 (stereo not shown)	19.8
N#Cc1cccnc1N1CCC(C(N)=O)CC1	14
Cc1ccc(S(=O)(=O)N(C)C)cc1NC(=O)c1ccc(OC(F)(F)F)cc1	-11.9
COc1cccc(NC(=S)NCc2ccc(F)cc2)c1	8.29
Cc1cccc(NC(=O)C2CCCN(c3nc(C)cc(C)n3)C2)c1 (stereo not shown)	6.68
O=[N+]([O-])c1ccc(NCCO)c2ncccc12	10.7
O=C(NCc1ccc2c(c1)OCO2)C1CCCN1S(=O)(=O)c1ccc(F)cc1 (stereo not shown)	3.85
CC(C)(C)NC(=O)NC(=O)COC(=O)CNS(=O)(=O)c1ccc(Br)cc1Cl	25.9
COC(=O)C(C)Oc1ccc(-c2nccc(-c3ccc(F)cc3)n2)cc1 (stereo not shown)	17.4
COC(=O)c1ccc(/C=C2\CCn3c2nc2cc(C(=O)O)ccc2c3=O)cc1	11
COc1ccc(NC(=O)CSc2nc3[nH]c(=O)[nH]c(=O)c3s2)cc1OC	17.6
O=C(Cn1cc([N+](=O)[O-])cn1)Nc1nccs1	12.8
O=C(c1c[nH]c(C(=O)C(Cl)(Cl)Cl)c1)c1c(F)cccc1F	3.92
C#CCOc1c(Cl)cc(/C=C2/C(=O)ON=C2C)cc1OCC	8.85
COc1ccc(S(=O)(=O)N2CCc3ccccc32)cc1C(=O)Nc1ccc(C(N)=O)cc1	10.8
C=Cn1ccnc1P(=S)(c1ccn(C)c1)c1nccn1C=C	14.1
O=C(CCN1C(=O)C2C3CCC(C3)C2C1=O)Nc1ccc([N+](=O)[O-])cc1 (stereo not shown)	-8.07
CSc1ccc(Cl)c(C(=O)OCC(=O)NCc2ccco2)c1	14.7
